Test results reported in patent US20190309066A1, “COMBINATION THERAPY FOR THE TREATMENT OF SOLID AND HEMATOLOGICAL CANCERS” (Arch Oncology, Inc., priority 2017, published 2019).

B1: VLX8 IgG1 N297Q (xi): chimeric (murine-human) anti-CD47 mAb, human IgG1-N297Q (antibody)
heavy: EVQLQQSGPELMKPGASVKISCKASGYSFTNYYIHWVNQSHGKSLEWIGYIDPLNGDTTYNQKFKGKATLTVDKSSSTAYMRLSSLTSADSAVYYCARGGKRAMDYWGQGTSVTVSS[letters of human IgG1 constant region with changes left out]
light: DIQMTQTTSSLSASLGDRVTISCRASQDISNYLNWYQQKPDGTVKLLIYYTSRLYSGVPSRFSGSGSGTDYSLTISNLEQEDIATYFCQQGNTLPWTFGGGTKLEIKRTVAAPSVFIFPPSDEQLKSGTASVVCLLNNFYPREAKVQWKVDNALQSGNSQESVTEQDSKDSTYSLSSTLTLSKADYEKHKVYACEVTHQGLSSPVTKSFNRGEC
B2: VLX8 IgG4 PE (xi): chimeric (murine-human) anti-CD47 mAb, human IgG4 PE (antibody)
heavy: EVQLQQSGPELMKPGASVKISCKASGYSFTNYYIHWVNQSHGKSLEWIGYIDPLNGDTTYNQKFKGKATLTVDKSSSTAYMRLSSLTSADSAVYYCARGGKRAMDYWGQGTSVTVSSASTKGPSVFPLAPCSRSTSESTAALGCLVKDYFPEPVTVSWNSGALTSGVHTFPAVLQSSGLYSLSSVVTVPSSSLGTKTYTCNVDHKPSNTKVDKRV[letters of human IgG4 Fc with changes left out]
light: B1 light
B3: VLX4 IgG1 N297Q (xi): chimeric (murine-human) anti-CD47 mAb, human IgG1-N297Q (antibody)
heavy: EVQLQQSGPELVKPGASVKMSCKASGYTFTNYVIHWVKRRPGQGLEWIGYIYPYNDGILYNEKFKGKATVTSDKSSSTAYMDLSSLTSEDSAVYYCTRGGYYVPDYWGQGTTLTVSS[letters of human IgG1 constant region with changes left out]
light: DVLMTQTPLSLPVNLGDQASISCRSRQSIVHTNGNTYLGWFLQKPGQSPKLLIYKVSNRFSGVPDRFSGSGSGTDFTLTISRVEAEDLGVYYCFQGSHVPYTFGGGTKLEIKRTVAAPSVFIFPPSDEQLKSGTASVVCLLNNFYPREAKVQWKVDNALQSGNSQESVTEQDSKDSTYSLSSTLTLSKADYEKHKVYACEVTHQGLSSPVTKSFNRGEC

Tests used:
[1] = system: Jurkat cells; assay: In vitro cell death assay (annexin V / 7-AAD); assay type: cell-based, human; details: 1 μg/ml soluble mAb, 24 hrs
Method: Induction of cell death by soluble anti-CD47 mAbs is measured in vitro (Manna et al. (2003) J. Immunol. […] (7): 3544-53, Kikuchi et al. Biochem Biophys Res. Commun. 315: 912-8, 2004), Pettersen et al. J. Immuno. 162: 7031-7040, 1999), Manna et al. Cancer Research, 64: 1026-1036, 2004). For the in vitro cell death assay, 1×10^5 transformed human T cells (Jurkat cells) were incubated with soluble humanized VLX4, VLX8, and VLX9 CD47 mAbs (1 μg/ml) for 24 hrs at 37° C. As cell death occurs, mitochondrial membrane potential is decreased, the inner leaflet of the cell membrane is inverted, exposing phosphatidylserines (PS), and propidium iodide (PI) or 7-aminoactinomycin D (7-AAD) is able to incorporate into nuclear DNA. In order to detect these cellular changes, cells were then stained with fluorescently labelled annexin V and PI or 7-aminoactinomycin D (7-AAD) (BD Biosciences) and the signal detected using an Accuri C6 flow cytometer (BD Biosciences). The increase in PS exposure is determined by measuring the percent increase in annexin V signal and the percent of dead cells by measuring the percent increase in PI or 7-AAD signal. Annexin V positive (annexin V+) or annexin V positive/7-AAD negative (annexin V^+/7-AAD^−) cells are observed in early stages of cell death and annexin V positive/7-AAD positive (annexin V^+/7-AAD^+) cells are dead cells. […]

[2] = system: human red blood cells (hRBCs); assay: Hemagglutination of washed hRBCs; assay type: cell-based; details: mAb concentrations 50 μg/ml down to 0.3 ng/ml or 0.3 pg/ml
Method: Hemagglutination of hRBCs was assessed following incubation of hRBCs with various concentrations of chimeric and humanized VLX4, VLX8, and VLX9 mAbs in vitro essentially as described by Kikuchi et al. Biochem Biophys Res. Commun (2004) 315:912-918. Blood was obtained from healthy donors, diluted (1:50) in PBS/1 mM EDTA/BSA and washed 3 times with PBS/EDTA/BSA. hRBCs were added to U-bottomed 96 well plates with equal volumes of the antibodies (75 μl of each) and incubated for 3 hrs at 37° C. and overnight at 4° C.

[3] = target: T1, human CD47 (OV10 hCD47 cells) (Homo sapiens, UniProt Q08722); assay: Cell-based ELISA binding to OV10 hCD47 cells; details: Table 1, chimeric (xi) mAbs; apparent Kd
T1 construct: expressed in transfected cells; host or cells: OV10 human ovarian cancer cell line
T1 sequence (Q08722 19-323): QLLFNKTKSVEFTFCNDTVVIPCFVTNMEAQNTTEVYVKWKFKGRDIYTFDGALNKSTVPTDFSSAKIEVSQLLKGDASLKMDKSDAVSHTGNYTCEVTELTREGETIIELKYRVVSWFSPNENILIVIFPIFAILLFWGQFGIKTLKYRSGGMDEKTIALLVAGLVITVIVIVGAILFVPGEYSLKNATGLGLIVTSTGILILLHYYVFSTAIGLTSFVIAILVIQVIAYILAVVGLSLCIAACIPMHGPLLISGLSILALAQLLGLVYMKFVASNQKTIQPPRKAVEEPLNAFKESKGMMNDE
Method: The binding of chimeric (murine-human) and humanized antibodies of the present disclosure was determined by ELISA using OV10 cells transfected with human CD47 (OV10 hCD47) or using freshly isolated human red blood cells (hRBCs), which display CD47 on their surface (Kamel et al. (2010) Blood. Transfus. 8(4):260-266).
Binding activities of VLX4, VLX8, and VLX9 chimeric (xi) and humanized mAbs were determined using a cell-based ELISA assay with human OV10 hCD47cells expressing cell surface human CD47. OV10 hCD47 cells were grown in IMDM medium containing 10% heat inactivated fetal bovine serum (BioWest; S01520). One day before assay, 3×10^4 cells were plated in 96 well cell bind plates (Corning #3300, VWR #66025-626) and were 95-100% confluent at the time of assay. Cells were washed, various concentrations of purified antibodies added in IMDM and incubated at 37° C. for 1 hr in 95% O2/5% CO2. Cells were then washed with media and incubated for an additional hour at 37° C. with HRP labelled secondary anti-human antibody (Promega) diluted 1/2500 in media. […] Reactions were terminated by the addition of HCl to 0.7N, and absorbance at 450 nm determined using a Tecan model Infinite M200 plate reader. The apparent binding affinities of these clones to human OV10 hCD47 cells was determined by non-linear fit (Prism GraphPad software).

[4] = target: T2, human CD47 on hRBCs (Homo sapiens, UniProt Q08722); assay: Flow cytometry binding to freshly isolated human red blood cells; details: Table 1, chimeric (xi) mAbs; read-out: Kd (pM) hRBC
T2 construct: freshly isolated human red blood cells (hRBCs), which display CD47 on their surface; endogenous in cells; host or cells: human red blood cells from blood of normal volunteers
T2 sequence (Q08722 19-323): as above
Method: Binding activities of chimeric and humanized VLX4, VLX8, and VLX9 mAbs to human CD47 on hRBCs were also determined using flow cytometry.

Molecule	PS exposure and cell death (annexin V+, annexin V+/7-AAD−, annexin V+/7-AAD+) [1]	hemagglutination of hRBCs (in words) [2]	Kd [3] [pM]	Kd [4] [pM]
B1	induced increased PS exposure and cell death	–	–	–
B2	induced increased PS exposure and cell death	caused visible hemagglutination	–	–
B3	–	–	258	92
